# Measurements taken from ChEMBL document CHEMBL4888484, “Replenishing the malaria drug discovery pipeline: Screening and hit evaluation of the MMV Hit Generation Library 1 (HGL1) against asexual blood stage Plasmodium falciparum ,using a nano luciferase reporter read-out” (2022).
# Out of some 150,000 compounds screened, about 540 (0.36%) showed an effect of 50% or more. The list shows a part of the results.
# Tested on: Plasmodium falciparum
# Experiment: Primary screen in NF54 nanoGlo assay, in single point, at 2uM, 72h; a lower Z score goes with more inhibition
# Type: functional, Erythrocyte
# Settings: timepoint 72 hour
Structure (SMILES),% Inhibition,Z score
Cc1nn(C)cc1S(=O)(=O)NC(c1cnc2ccccc2c1)[C@H]1C[C@@H](O)C1 (some centres undefined),-2%,0.3
CCC1=NN(C(=O)c2ccccc2)[C@@](O)(c2ccncc2)C1,-10%,2
c1ccc(-c2ccc(-c3[nH]c(-c4c[nH]c5ccccc45)nc3-c3ccccc3)cc2)cc1,2%,-0.29
COCCN1C[C@H]2CCN(C/C=C/c3ccccc3)[C@H]2C1,2%,-0.47
Cc1cccc(-c2csc(N3CCN(C(c4ccccc4)c4ccccc4)CC3)n2)c1,10%,-1.68
Cn1nnc(C(=O)NC[C@H]2C[C@@H]2c2ccc(Cl)cc2Cl)n1,1%,-0.08
Cc1c(C(=O)Nc2ncccc2OCc2cccc(Cl)c2)cnn1CC(C)C,-13%,1.54
O[C@H]1[C@H](NC2CCCC2)[C@H]2CO[C@H](O2)[C@@H]1n1cnc2ccccc21,29%,-3.27
CN(C)CCN(C)C(=O)Nc1ccc(Br)cn1,-8%,0.98
CCCC(=O)N1CCC(OC(=O)c2c(C)nn(C)c2OC)CC1,-7%,0.6
CCn1ncc(-c2ccnc3cc(C(=O)Nc4ccc(C(C)C)cc4)nn23)c1C,3%,-0.32
C[C@@]1(C(=O)NCc2ccccc2)Cn2nc(-c3cccs3)cc2C(=O)N1Cc1cccnc1,2%,-0.37
Cc1ccc(NC(=O)c2ccc(N3CCOCC3)nn2)cc1Cl,0%,0
CCc1nnc(CN2C(=O)C[C@](C)(c3ccc(C)cc3)C2=O)o1,-4%,0.39
CCOc1ccc(NC(=O)N2CCc3c([nH]c4ccc(OC)cc34)[C@H]2c2ccc(F)cc2)cc1,12%,-1.4
CN(C)C1(CNc2cc(-c3ccccc3F)nc3ccnn23)CCOCC1,-10%,1.39
O=C(NCCc1csc(-c2ccccc2)n1)C1CCN(C(=O)c2ccc(F)c(F)c2)CC1,-8%,0.99
Cc1ccoc1CNC(=O)N1CCC2(CCC2)S(=O)(=O)CC1,-1%,0.19
O=C(Nc1ccc(-n2nncc2-c2ccco2)cc1)c1ccc(F)cc1,-3%,0.35
COC(=O)C1CCN(c2nc(N3CCCC3)nc(N3CCCC3)n2)CC1,-14%,2.26
Cn1nnnc1NC(=O)[C@H]1C2CCC(CC2)[C@@H]1C(F)(F)F,-9%,1.42
Cc1nsc(NC(=O)C[C@H]2CCCC(C)(C)C2)c1C#N,-12%,1.66
Cn1cc(CCC(=O)N2CCC3(CC2)[C@H](O)C[C@@H]3O)cn1,-6%,0.97
Cc1ccc(F)c(OC2(C(=O)O)CCN(Cc3ccoc3)CC2)c1,-5%,0.98
CCS(=O)(=O)CCn1nnc(-c2ccco2)n1,-7%,1.3
Cc1ccc(NC(=O)c2ccnc(C(F)(F)F)c2)cc1OCC1CCOCC1,-13%,1.07

Structure (SMILES),% Inhibition,Z score
Cc1cccc(C(=O)Nc2ccccc2C(=O)OCc2nc(C)no2)c1,-16%,2.09
Cn1cc(CCC(=O)N2CCc3cc4ccc3[C@@H]2c2cccc(c2)OCCCn2cc(nn2)CO4)cn1,-11%,1.25
O=S(=O)(Oc1cccc(-c2nnco2)c1)c1ccc2ccccc2c1,-1%,0.11
O=C1CCCCN1CCC(=O)N1CCc2onc(-c3cccc4ccccc34)c2C1,-1%,0.1
O=C(c1ccccc1)N1CCN(C(=O)c2cc3nc4c(c(C(F)(F)F)n3n2)CCc2ccccc2-4)CC1,-13%,1.69
O=C(Nc1ccc2c(c1)OCO2)c1ccc(-c2ccccc2F)s1,-15%,1.4
N#Cc1cccc(-c2nccn2CCc2cnn(-c3ccccc3)c2)c1,-2%,0.23
COc1ccc(C)cc1NC(=O)[C@H]1CCCN(S(=O)(=O)c2cc3c(cc2C)NC(=O)CO3)C1,-10%,1.16
O=C(Cc1ccccc1F)N1CC[C@H](OCc2ccccc2)C1,-6%,1.03
CCNC(=O)[C@H]1CCN(S(=O)(=O)c2cc(-n3cccn3)ccc2OC)C1,-17%,2.17
CC1CCC(CC[C@](C)(O)C#CCN(C)C)CC1 (some centres undefined),6%,-1.16
Fc1ccccc1N1CCN(c2c3c(nc4nc(Cc5ccc(Cl)cc5)nn24)CCCC3)CC1,33%,-0.73
Cc1ccc2[nH]c(=O)c(CN3CCC(C(=O)N4CCCC4)CC3)cc2c1,6%,-0.53
CC[C@H]1CN(C(=O)c2coc(COc3ccc(OC)cc3)n2)CCN1,4%,-0.43
COc1ccc([C@@H](NC(=O)NCC(F)F)C(F)(F)F)cc1F,-1%,0.14
CN1CCCN(c2ccc(CNC(=O)c3ccc(Oc4ccccc4)cc3)cn2)CC1,-6%,0.68
Cc1cccc(-c2noc(C3C4CCC(O4)C3C(F)(F)F)n2)c1F (centres undefined),0%,-0.09
COCc1nc([C@@H]2CCCCCN2CC(=O)N2CCCCC2)no1,-1%,0.06
CCCCc1nc(N2CCCN(C(=O)Nc3ccccc3)CC2)c2c(-c3ccc4ccccc4c3)noc2n1,-9%,1.42
O=C(CCc1nnc(CCc2c[nH]c3ccccc23)o1)N1CCCCCC1,-9%,1.25
O=C(CN1CCCCCC1)N1[C@@H]2CC[C@H]1C[C@@H](O)C2,-3%,0.39
CC(C)CS(=O)(=O)NC[C@H]1CN(C)C(=O)CO1,-6%,0.91
O=C1N(CCC2CCCCC2)CCC[C@@]1(O)CNC1CCC1,26%,-3.47
O=C(Nc1ncc2[nH]ccc2c1Br)[C@H]1CCCO1,-8%,0.75
CCCCN1CCN(c2ncc(F)c(OC)n2)CC1=O,-15%,2.49
COc1ccc(NC(=O)N(C)CCc2c(C)nn(C)c2C)cc1OC,-3%,0.4
